According to the supplement of paper PMC12217912:
The other results are listed elsewhere or left out. The full chains were built here from the parent and the listed change. Values near 0.05 are background.

B1: TEV protease; numbered along this chain (parent)
chain: MGESLFKGPRDYNPISSSICHLTNESDGHTTSLYGIGFGPFIITNKHLFRRNNGTLVVQSLHGVFKVKDTTTLQQHLVDGRDMIIIRMPKDFPPFPQKLKFREPQREERICLVTTNFQTKSMSSMVSDTSCTFPSGDGIFWKHWIQTKDGQCGSPLVSTRDGFIVGIHSASNFTNTNNYFTSVPKNFMELLTNQEAQQWVSGWRLNADSVLWGGHKVFMVKPEEPFQPVKEATQL

Variants of: B1
Test: raw area under fraction-flipped curve 0-4 h after induction (AUC4h, not background-subtracted), DNA-recorder readout of cleavage of the substrate (dimensionless); higher = more cleavage of the substrate by the protease variant
Conditions: temperature: 34 °C; time window: 0-4 h after rhamnose induction
Experimental: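 In vivo DNA recorder in E. coli TOP10(DE3) ΔrhaA at 34 °C. Each TEVp single-site mutant (parent TEVp 0) is paired with a single-site variant of the 7-mer TEVs (canonical ENLYFQ|S). The substrate sits between flexible linkers in a Bxb1-sfGFP-TEVs-SsrA fusion, so cleavage stabilises Bxb1 and speeds flipping of a recombination array, read by NGS. The value is the raw area under the fraction-flipped curve over 0-4 h after rhamnose induction (AUC4h), with ≥20 reads per time point. It is not background-subtracted; inactive controls average about 0.047.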
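Also: Bxb1 expression induced with 0.2% (w/v) L-rhamnose at OD600 near 0.5, cultures sampled hourly, flipped fraction per protease–substrate barcode pair counted by paired-end Illumina sequencing.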

| Variant | area with substrate ANLYFQS | area with substrate CNLYFQS | area with substrate DNLYFQS | area with substrate GNLYFQS | area with substrate HNLYFQS | area with substrate LNLYFQS | area with substrate MNLYFQS | area with substrate PNLYFQS | area with substrate RNLYFQS | area with substrate SNLYFQS | area with substrate TNLYFQS | area with substrate WNLYFQS | area with substrate FNLYFQS | area with substrate INLYFQS | area with substrate NNLYFQS | area with substrate YNLYFQS | area with substrate KNLYFQS | area with substrate QNLYFQS | area with substrate VNLYFQS |
| --- | --- | --- | --- | --- | --- | --- | --- | --- | --- | --- | --- | --- | --- | --- | --- | --- | --- | --- | --- |
| T23R | 0.063 | 0.08 | 0.0604 | 0.0883 | 0.0678 | 0.0764 | 0.0627 | 0.0634 | 0.0425 | 0.0509 | 0.06 | 0.0597 | – | – | – | – | – | – | – |
| T23S | 0.0639 | 0.0666 | 0.0735 | 0.0669 | 0.0701 | 0.0567 | 0.0609 | 0.0566 | – | 0.0664 | 0.068 | 0.0513 | 0.0655 | 0.0811 | 0.0608 | 0.0528 | – | – | – |
| T23I | 0.0708 | 0.0947 | 0.0956 | – | 0.0438 | 0.0829 | 0.0767 | 0.0735 | – | 0.0769 | 0.0584 | 0.101 | – | 0.0456 | – | – | 0.0114 | 0.071 | – |
| S18K | 0.0655 | 0.0553 | 0.0745 | 0.0731 | 0.0555 | 0.0718 | – | 0.0681 | 0.0694 | – | 0.0749 | 0.0564 | 0.0528 | – | 0.0598 | 0.0563 | 0.0597 | 0.115 | 0.0609 |
| S18R | 0.0828 | 0.0794 | 0.0802 | 0.0566 | 0.0533 | 0.0658 | 0.0658 | 0.0779 | 0.0727 | 0.0556 | 0.0607 | 0.0619 | 0.0622 | – | 0.0707 | – | – | 0.086 | 0.0643 |
| I19H | 0.0744 | 0.0588 | 0.0514 | 0.076 | 0.0483 | 0.0593 | 0.0542 | 0.0535 | – | 0.0597 | 0.0718 | 0.0477 | 0.0409 | 0.044 | 0.0503 | 0.0726 | – | – | 0.0375 |
| C20R | 0.0179 | 0.0257 | 0.0616 | 0.054 | 0.0399 | 0.0542 | – | 0.0457 | 0.0336 | 0.0473 | 0.0472 | 0.0345 | – | – | 0.0498 | – | 0.0534 | – | 0.043 |
| C20M | 0.109 | 0.0672 | 0.0467 | 0.0657 | 0.0677 | 0.0666 | 0.065 | 0.0638 | – | 0.0702 | 0.064 | 0.0603 | – | 0.0545 | – | 0.0656 | 0.0732 | – | 0.072 |
| C20F | 0.0487 | 0.0648 | 0.1 | – | 0.0567 | – | 0.0549 | 0.0644 | 0.0477 | 0.0569 | 0.0448 | 0.049 | 0.068 | 0.0521 | 0.0377 | – | 0.0581 | – | 0.0294 |
| Y12K | 0.0385 | 0.0691 | 0.078 | – | 0.073 | – | – | 0.0681 | 0.0539 | 0.0575 | 0.073 | 0.0551 | – | – | 0.0655 | 0.032 | 0.0614 | 0.0585 | – |
| Y12W | 0.0644 | 0.0614 | 0.0705 | 0.0693 | 0.0631 | – | 0.0645 | 0.0795 | 0.0633 | 0.0202 | 0.0732 | 0.0669 | – | 0.0525 | 0.0648 | 0.0563 | 0.0865 | 0.0512 | 0.0393 |
| Y12H | 0.0647 | 0.0851 | 0.0767 | – | 0.0667 | 0.0703 | 0.0711 | 0.0611 | 0.0673 | 0.0717 | 0.0809 | 0.0679 | 0.0534 | – | – | 0.0756 | 0.041 | – | – |
| Y12S | 0.0625 | 0.0662 | 0.0699 | 0.0648 | 0.0608 | 0.0591 | 0.065 | 0.0655 | – | – | 0.0692 | 0.0635 | – | 0.0705 | 0.0558 | 0.0565 | 0.0061 | – | 0.0628 |
| S17Q | 0.0647 | 0.0715 | 0.0757 | 0.0038 | 0.0657 | 0.0617 | 0.0751 | 0.0746 | – | 0.0704 | 0.0673 | 0.0556 | – | 0.0757 | 0.0658 | 0.0633 | 0.0706 | – | 0.0702 |
| S17D | 0.068 | 0.0543 | 0.0787 | 0.0676 | 0.0696 | 0.0591 | 0.0593 | 0.0834 | 0.0677 | 0.0728 | 0.0776 | 0.0566 | – | 0.0613 | – | 0.0631 | 0.0639 | – | 0.0651 |
| S17F | 0.0683 | 0.0686 | 0.0679 | – | 0.0703 | 0.0602 | 0.0762 | 0.0615 | – | 0.0555 | 0.0651 | 0.0604 | 0.0649 | 0.0664 | 0.0394 | 0.0602 | – | – | – |
| I15C | 0.0601 | 0.0615 | 0.074 | 0.0573 | 0.069 | 0.0302 | 0.0713 | 0.0643 | 0.0595 | 0.0552 | 0.0655 | 0.0513 | – | 0.054 | 0.0454 | 0.0578 | 0.066 | – | 0.0594 |
| I15S | 0.0538 | 0.0624 | 0.0591 | – | 0.0469 | 0.0542 | – | 0.0506 | 0.0472 | – | – | 0.0593 | – | – | 0.0604 | 0.0518 | 0.0751 | – | 0.103 |
| D11L | 0.0576 | 0.0723 | 0.075 | 0.0676 | 0.0623 | 0.0678 | 0.0497 | 0.0634 | 0.0533 | 0.0637 | 0.0685 | 0.059 | 0.0603 | 0.0611 | 0.0599 | 0.0641 | 0.0717 | – | 0.0636 |
| D11Q | 0.0573 | 0.0693 | 0.0777 | 0.0688 | 0.0582 | 0.0698 | 0.0573 | 0.0629 | 0.0324 | – | 0.0703 | 0.0585 | 0.0368 | – | 0.0704 | 0.0579 | 0.0711 | – | – |
| D11A | 0.0697 | 0.0558 | 0.0852 | 0.0537 | 0.0598 | 0.0496 | 0.0659 | 0.0651 | 0.072 | 0.065 | 0.0621 | 0.0564 | – | 0.0676 | 0.067 | 0.0712 | 0.0745 | – | – |
| D11S | 0.079 | 0.0642 | 0.0763 | 0.0662 | 0.0589 | 0.0772 | 0.0471 | 0.0744 | – | 0.0899 | 0.0707 | – | 0.0597 | 0.0714 | 0.0709 | – | 0.0736 | – | 0.0739 |
| E25P | 0.0479 | 0.053 | 0.0598 | 0.068 | 0.0567 | 0.04 | 0.0511 | 0.0571 | – | 0.0562 | 0.057 | 0.0532 | 0.0596 | 0.0453 | 0.0538 | 0.0342 | – | – | 0.0266 |
